From a compilation of properties of binary mixtures (doi:10.1016/j.molliq.2016.01.096)
Some of these densities may be calculated back from excess volumes.

Assay: xn = mol fraction of the nth substance listed
Details: 100 kPa

CCOCCO + CCOS(=O)(=O)[O-].CC[n+]1ccn(C)c1
mass density [kg/m3]
Details	298.15 K	308.15 K	318.15 K	328.15 K
x1 = 0.0588	–	–	1213.6	–
x1 = 0.1202	1216.9	1210	–	1196.3
x1 = 0.1846	1205.4	1198.4	1191.6	1184.6
x1 = 0.2326	–	1189.2	–	–
x1 = 0.3548	1170.8	1163.7	1156.6	1149.4
x1 = 0.4516	–	1140.7	1133.5	1126.2
x1 = 0.5511	1121.4	1114	1106.6	–
x1 = 0.6529	1089.9	1082.3	1074.6	1066.9
x1 = 0.741	–	–	1042.2	–
x1 = 0.8273	–	–	1005	996.6
x1 = 0.8658	–	–	986.4	–
x1 = 0.9094	980.4	971.9	963.3	954.5
x1 = 0.9512	956.6	947.9	939.1	930
x1 = 1	925.9	916.9	907.7	898

CCOS(=O)(=O)[O-].CC[n+]1ccn(C)c1 + CCOCCO
x2 = 0
Details	mass density [kg/m3]
298.15 K	1236.4
318.15 K	1222.8
328.15 K	1216.2
